Measurements published in the RNAGym collection of RNA variant scans (doi:10.1093/nar/gkz1192).
The source gives no read counts; variants with many changes may rest on few reads.

B1: CPEB3 Ribozyme (parent)
chain: UAACAGGGGGCCACAGCAGAAGCGUUCACGUCGCAGCCCCUGUCAGAUUCUGGUGAAUCUGCGAAUUCUGCUGUAUAUCUC

Variants of: B1
Assay: self-cleavage, relative activity (ratio to wild type); higher = more cleavage; in vitro, sequencing
How it was run: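 Relative activity compares each variant's cleaved/total read fraction with that of the unmutated ribozyme. To get these fractions, barcoded CPEB3 ribozyme libraries from rounds of error-prone PCR were transcribed with T7 RNA polymerase for 5 hours at 37°C and then given 15 min of DNase I treatment before EDTA was added. The RNAs were reverse transcribed with template switching and sequenced on Illumina, and DNA sequencing linked barcodes to variants. A minimum of 5 reads applied, and three batches were averaged.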

Row | Variant | self-cleavage
1 | UAACUGGGGGCCACAGCAGAAGCGUUCACGUCGCAGCCCCUGUCAGAUUCUGGUGAAUCCGCGAAUUCUGCUGUACAUCUC [A5U U60C U76C] | 0.99
2 | UAACUGGGGGCCACAGCAGAAGCGUUCACGUCGCAGCCCCCGUCAGAUUCUGGUGAACCUGCGAAUUCUGCUGUAUAUCUC [A5U U41C U58C] | 0.35
3 | UAACUGGGGGCCACAGCAGAAGCGUUCACGUCGCAGCCCCUGUCAGAUUCUGGAGAAUCUGCGAAUCCUGCUGUAUAUCUC [A5U U54A U67C] | 0.3
4 | UAACUGGGGGCCACAGCAGAAGCGUUCACGUCGCAGCCCCCGUCAGAUUCUGGUGAAUCUGCGAAUUCUGCUGCAUAUCUC [A5U U41C U74C] | 1.23
5 | UAACUGGGGGCCACAGCAGAAGCGUUCACGUCGCAGCCCCUGUCAGAUCUUGGUGCAUCUGCGAAUUCUGCUGUAUAUCCC [A5U U49C C50U A56C U80C] | 1.09
6 | UAACUGGGGGCCACAGCAGAAGCGUUCACGUCGCAGCCCCUGUCAGAUUCUGGUGAAUCAGCGUAUUCCGCUGUACAUCUC [A5U U60A A64U U69C U76C] | 0.31
7 | UAACUGGGGGCCACAGCAGAAGCGUUCACGUCGCAGCCCCUGUCAGAUUCCGGUGUACCUGCGAAUUCUGCGGUAUAUCUC [A5U U51C A56U U58C U72G] | 0.4
8 | UAACUGGGGGCCACAGCAGAAGCGUUCACGUCGCAGCCCCUGUCAGAUUCUGGCGAAUCUGCGAGUUCUGCUGUAUAUCUC [A5U U54C A65G] | 0.26
9 | UAACUGGGGGCCACAGCAGAAGCGUUCACGUCGCAGCCCCUGCCAGAUUCUGGUGAAUCUGCGAAUUCUGCUGUAUACCUC [A5U U43C U78C] | 0.69
10 | UAACUGGGGGCCACAGCAGAAGCGUUCACGUCGCAGCCCCUGUCAGACUCUGGUGAACCUGCGAAUUCUGCUGUGUAUCUC [A5U U48C U58C A75G] | 0.08
11 | UAACUGGGGGCCACAGCAGAAGCGUUCACGUCGCAGCCCCUGGCAUAUUCUGGUGAAUCUGCGAAUUCUGCUGUAUAUCUC [A5U U43G G46U] | 0.07
12 | UAACUGGGGGCCACAGCAGAAGCGUUCACGUCGCAGCCCCUGUCAGAUUCUGGUGAACCUGCGAAUUCUGCUGUGUAUCUC [A5U U58C A75G] | 0.52
13 | UAACUGGGGGCCACAGCAGAAGCGUUCACGUCGCAGCCCCUGUCAGAUUCCGGUGAAUCCGCAAAUUCUGCUGUAUAUCUC [A5U U51C U60C G63A] | 0.45
14 | UAACUGGGGGCCACAGCAGAAGCGUUCACGUCGCAGCCCCUGUCAGAUUCUGGUGAAUCAGCGAAUUCUGCUGCAUAUCUC [A5U U60A U74C] | 0.56
15 | UAACUGGGGGCCACAGCAGAAGCGUUCACGUCGCAGCCCCUGUCAGAUUCUGGUGAAUCCGCGAAUUCUGCAGUACACCUC [A5U U60C U72A U76C U78C] | 1.02
16 | UAACUGGGGGCCACAGCAGAAGCGUUCACGUCGCAGCCCCUGUCAGAUUCUGGUGAAUCCGCGAAUUCUGCUGUAUGUCUC [A5U U60C A77G] | 0.52
17 | UAACUGGGGGCCACAGCAGAAGCGUUCACGUCGCAGCCCCUGGCAGAUUCUGGUGAGUCUGCGAAUUCUGCUGAAUAUCUC [A5U U43G A57G U74A] | 0.44

Row | Variant | self-cleavage
18 | UAACUGGGGGCCACAGCAGAAGCGUUCACGUCGCAGCCCCUGUCAGACUGUGGUGAAUCCGCGAAUUCUGCUGUAUAUCUC [A5U U48C C50G U60C] | 0.18
19 | UAACUGGGGGCCACAGCAGAAGCGUUCACGUCGCAGCCCCUGUCAGAACCUGGUGUAUCAGCGAAUUCUGCUGUAUAUCUC [A5U U48A U49C A56U U60A] | 0.11
20 | UAACUGGGGGCCACAGCAGAAGCGUUCACGUCGCAGCCCCUGCCAGAUUCUGGUGAACCAGCGUAUUCAGCCGUAUAUCUC [A5U U43C U58C U60A A64U U69A U72C] | 0.14
21 | UAACUGGGGGCCACAGCAGAAGCGUUCACGUCGCAGCCCCUGUCAGAUUCCGGUGAAUCUGCGAAUUCUGCUGUAUACCUC [A5U U51C U78C] | 1
22 | UAACUGGGGGCCACAGCAGAAGCGUUCACGUCGCAGCCCCUGUCAGAUCCUGGUGAAUCUGCGAAUUCUGCUGUAUAUCUA [A5U U49C C81A] | 0.53
23 | UAACUGGGGGCCACAGCAGAAGCGUUCACGUCGCAGCCCCUGCCAGACUCUGGUGAAUCUGCGAAUUCUGCUGUAUAUCUC [A5U U43C U48C] | 0.13
24 | UAACUGGGGGCCACAGCAGAAGCGUUCACGUCGCAGCCCCUGUCAGAUUCAGUUGAAUCUGCGGAUUCUGCUGUAGAUCUC [A5U U51A G53U A64G U76G] | 1.25
25 | UAACUGGGGGCCACAGCAGAAGCGUUCACGUCGCAGCCCCUGUCAGAUUCUGGUGAAUCAGCGAAUUCUGCUGUGUAUCUC [A5U U60A A75G] | 0.58
26 | UAACUGGGGGCCACAGCAGAAGCGUUCACGUCGCAGCCCCUGUCAGAUUCUGGAGAAUCUGCGAAUUCCGCUGAAUAUCAC [A5U U54A U69C U74A U80A] | 1.16
27 | UAACUGGGGGCCACAGCAGAAGCGUUCACGUCGCAGCCCCUGUCAGACUCUGGUGAAUCUGCGGAUACUGCUGUACAUCUC [A5U U48C A64G U67A U76C] | 0.08
28 | UAACUGGGGGCCACAGCAGAAGCGUUCACGUCGCAGCCCCUGUCAGAUCCUGGUGAAUCCGCGAAUUCUGCUGUAUAUCUC [A5U U49C U60C] | 0.23
29 | UAACUGGGGGCCACAGCAGAAGCGUUCACGUCGCAGCCCCUGUCAGAUUCUGGUGAAUCCGCCGAUUCUGCUGUAUGUCUC [A5U U60C G63C A64G A77G] | 0.26
30 | UAACUGGGGGCCACAGCAGAAGCGUUCACGUCGCAGCCCCUGUCAGAUGCUGGUGAAUCAGCGAAUUCUGCUGUAUAUCUC [A5U U49G U60A] | 0.28
31 | UAACUGGGGGCCACAGCAGAAGCGUUCACGUCGCAGCCCCUGACAGAUUCUGGUGAGUCUGCGAAUUCUGCUGUAUAUCUC [A5U U43A A57G] | 0.8
32 | UAACUGGGGGCCACAGCAGAAGCGUUCACGUCGCAGCCCCUGCCAGAUUCUGGUGAAUCUACGAAUUCUGCUGUACAUCUC [A5U U43C G61A U76C] | 0.19
33 | UAACUGGGGGCCACAGCAGAAGCGUUCACGUCGCAGCCCCUGACAGAUACUGGUGAGACUGCGAAUUCUGCUGUAAAUCAC [A5U U43A U49A A57G U58A U76A U80A] | 0.32
34 | UAACUGGGGGCCACAGCAGAAGCGUUCACGUCGCAGCCCCUGUCAGAUUCUGGUGAACCAGCGAAUUCUGCUGCAUAUCUC [A5U U58C U60A U74C] | 0.24
